Results on one molecule are retold here after patent US12122821B2, “Regulation of glucose metabolism using anti-CGRP antibodies” (H. LUNDBECK A/S, priority 2013, dated 2024).

“Also recorded” adds a separate entry of the source.

Test [1] relates to Normal rats. Briefly: Hyperinsulinemic-euglycemic clamp, whole body glucose fluxes in normal rats (Example 1). In kind it is in vivo, rat. The conditions noted are these: Ab14 100 mg/kg i.v., vs vehicle. Here is the method: To assess the effect on whole body insulin sensitivity, a clamp procedure was performed using 0.3 U/kg/h insulin and ^3H-glucose. Rats were fasted for 6 hours before 180 minutes of perfusion. Steady state was reached after 140 minutes of infusion and the means of glucose infusion rate (GIR), whole body glucose turn over (GTO), hepatic glucose production (HGP), glycolysis, and glycogen synthesis were calculated from 140 min. to 180 min. A bolus of 14-C-2-deoxyglucose was administered 1 hour before the end of the clamp to measure tissue specific glucose utilization.
The hyperinsulinemic-euglycemic clamp was performed using ^3H-glucose as a tracer and 0.3 U/kg/h insulin infusion from 02:00 pm (T0) to 05:00 pm (T+3 h). A glucose solution was infused in parallel and the infusion rate was adjusted to reach the steady state (˜100+/−10 mg/dL). Blood glucose was measured from the tip of the tail using glucometers every 10 minutes. Blood was collected (10 μL) from the tip of the tail during the last hour (steady state) and the following parameters were assessed: Glucose infusion rate; Whole body glucose utilization rate; Hepatic glucose production rate; Whole body glycogen and glycolytic rates.
Whole body Glucose fluxes.

The subject of test [2] is Normal rats. Briefly: Blood glucose, plasma insulin and HOMA-IR before clamp in normal rats (Example 1). In kind it is in vivo, rat. The conditions noted are these: 42 h after Ab14 100 mg/kg i.v., 18 h after metformin 500 mg/kg p.o., vs vehicle. Here is the method: The antibody used in this example consisted of the light and heavy polypeptide chains of SEQ ID NOs 132 and 134.
Blood glucose (BG) was measured between 07:30 and 08:00 (just before the light off) am from the tip of the tail with glucometer and a blood collection (on EDTA) was performed just after to measure plasma insulin. The table below describes the conditions:
Plasma samples were kept at −80° C. until insulin measurement (using ELISA method).
Vehicle and Ab14 were administered by i.v. route 48 h before the T0 of clamp procedure (at 02:00 pm two days before the clamp).
The rats were fasted 6 hours before the start of the clamp (at ˜8 h, just after the blood collection).

B1: Ab14: humanized anti-CGRP antibody consisting of the light and heavy polypeptide chains of SEQ ID NOs 132 and 134 (protein)
light: QVLTQSPSSLSASVGDRVTINCQASQNVYNNNYLAWYQQKPGKVPKQLIYSTSTLASGVPSRFSGSGSGTDFTLTISSLQPEDVATYYCLGSYDCSRGDCFVFGGGTKVEIKRTVAAPSVFIFPPSDEQLKSGTASVVCLLNNFYPREAKVQWKVDNALQSGNSQESVTEQDSKDSTYSLSSTLTLSKADYEKHKVYACEVTHQGLSSPVTKSFNRGEC
heavy: EVQLVESGGGLVQPGGSLRLSCAVSGIGLSSYYMQWVRQAPGKGLEWVGVIGSDGKTYYATWAKGRFTISRDNSKTTVYLQMNSLRAEDTAVYFCTRGDIWGQGTLVTVSSASTKGPSVFPLAPSSKSTSGGTAALGCLVKDYFPEPVTVSWNSGALTSGVHTFPAVLQSSGLYSLSSVVTVPSSSLGTQTYICNVNHKPSNTKVDARV[here human IgG1 Fc with changes without letters]
In the case of B1, the “GIR evolution during clamp” value in the test with Normal rats [1] (metformin 500 mg/kg p.o.) is “trend to increase”. Besides, the “increase of glycolysis rate” value in the test with Normal rats [1] (clamp 0.3 U/kg/h insulin, 140-180 min, metformin 500 mg/kg p.o.) is on record as “did not affect”. Further, the “increase of glycogen synthesis rate” value in the test with Normal rats [1] (clamp 0.3 U/kg/h insulin, 140-180 min, NS) was determined as 23%. The “blood glucose in fed conditions” value with Normal rats [2] is “did not affect; also recorded: not affected”. Further, in the test with Normal rats [2] (fed, not significant), the “insulin resistance index HOMA-IR” value is reported as “slightly decreased; also recorded: decreased in a similar manner”.
